This is one part of the list.
B1: chr2:91613138:91613139:+_ENSMUSG00000040506_ENSMUST00000045705|mus_mus|FALSE|FALSE (ssRNA)
RNA: GGGAGUUCUACAGUCCGACGAUCCUGCUGUCUCAGUACAGAAAGCAAACUCACUGAGGAGGCACUGGUCCUCGGUGGGGGCAUAGAUUCUACCUCAGAACGAGAGUUCAGAGUGAGUACUGUCCGGGUCCACUCAGAACCUGUCAACAGAGGAUUGAGCAUCA
B2: chr1:50642785:50642786:+_ENSG00000162374_ENST00000371827|hu_hu|FALSE|FALSE (ssRNA)
RNA: GGGAGUUCUACAGUCCGACGAUCAGUGUUGAUGGCUUUCUCUGCAUCCUUUGGAUCAAUAUAGUUAACAAAUCCAUACCCUAAACUCUGUCCUGUAAUUUUGUCUCUCACAAGUUUGCAGGAUUCUAUUUCACCAAUGCUCCCCAACAGAGGAUUGAGCAUCA
B3: chr14:15598107:15598108:+_ENSMUSG00000021733_ENSMUST00000057015|perfect_dup|FALSE|FALSE (ssRNA)
RNA: GGGAGUUCUACAGUCCGACGAUCUUGCCCAGCAAACAAUGAAUAGGCAAUCCCAGUUAAUGACGCUCCAAAAAGAGACUCUAUUGCACUUAUUCUGCCUUCUGUAGCUUCUCCAAGCAGCCCUCCAAAAGUGAUUACAGGAGACAACAGAGGAUUGAGCAUCA
B4: chr7:141438946:141438947:+_ENSG00000106028_ENST00000265304|hu_mus|hu_hu_hu_mus_True|38_78 (ssRNA)
RNA: GGGAGUUCUACAGUCCGACGAUCGACGAAAUACCUGUAACACAGGUCUUCGAAACAUUCUAUUUUCUUUUCUUACAACCUAAUCUUUAGGCUUUUCCUGACGAUCUGAAAGAAAAGAGAAAAAUGAUAAAUCAAGAAACUACACAACAGAGGAUUGAGCAUCA
B5: chr3:55862657:55862658:-_ENSMUSG00000027799_ENSMUST00000029374|mus_hu|FALSE|FALSE (ssRNA)
RNA: GGGAGUUCUACAGUCCGACGAUCUGAUGAUUCCAGGCAGAGCUGAGCAUCAGUGGCCUUAGCAUUAUAUGUAAAGGCAAUGCUACUUGCAAGUUUCCCAUCAUAUAACACCUGUUUAUGAUGUUCUGCCAAAUGAAUAUCACUCAACAGAGGAUUGAGCAUCA
B6: chr19:8913615:8913616:-_ENSMUSG00000071658_ENSMUST00000096259|mus_hu|mus_mus_mus_hu_False|68_108 (ssRNA)
RNA: GGGAGUUCUACAGUCCGACGAUCAGGGGGGCACCAACUUCUGCCUGAAAUGGGUGCCCCACCCAGUCAGGACUUGGAGCUGAAAGUAUCUGAUGCAGAAGCAGUGACUAUACGAAAGGAGGCCCCUGGGGAGGGCCAGGCCAGCAACAGAGGAUUGAGCAUCA
B7: chr2:47388980:47388981:-_ENSG00000143933_ENST00000272298|hu_mus|FALSE|FALSE (ssRNA)
RNA: GGGAGUUCUACAGUCCGACGAUCUUCAUCUGUUAACUUCUCGCCAAGGUUUGUCAUCACAUGGCGAAGCUCUGCUGCACUAAUAUAGCCAUUGCCAUCCUUAUCAAACACACGGAAUGCUUCUCUAAUCUCUUCUUCACUGUCCAACAGAGGAUUGAGCAUCA
B8: chr10:88205819:88205820:+_ENSMUSG00000060904_ENSMUST00000116234|mus_mus|FALSE|FALSE (ssRNA)
RNA: GGGAGUUCUACAGUCCGACGAUCGUUGGCUCACAGGCGCUGACGUGAAUGGGCUCACUGUCUGCUUUUCAGGGUUUCAACUAACCAUUCCAUUGCCUCAUCAAGGCCAGUGCCUUUGGUUGCUGAAGUUUUAAAGAUCUGCCACAACAGAGGAUUGAGCAUCA
B9: chr12:493273:493274:-_ENSG00000073614_ENST00000399788|hu_mus|hu_hu_hu_mus_False|28_48 (ssRNA)
RNA: GGGAGUUCUACAGUCCGACGAUCUUUUCUCUCCACCACAGGGAUCUUCAAUGUAGAUCCUUGAAGUUCCCAAAAUUUUGCCAGUUGAUCCAAGAAAUCCAAUCUUACUCUGGUCAUUGCCUCAAGUUCAUUCAGGCGCUGGACCAACAGAGGAUUGAGCAUCA
B10: chr5:145543945:145543946:-_ENSG00000133706_ENST00000545646|hu_hu|hu_hu_hu_mus_True|68_68 (ssRNA)
RNA: GGGAGUUCUACAGUCCGACGAUCCUGAACGGCCAGUGGUGGGAAAUAAUCAAGCCAGUGCUCUGCUUCAGAAAAUUUCACUAUGUCGUCAUCAGAGAGCCCAAGGGAUUUCAUAAUGUCCCACUGGUACUUAGAAGAUCCUGCCAACAGAGGAUUGAGCAUCA
B11: 97822651_97822771_3227_CDS_ENSG00000164715_ENST00000297293|human|control|control (ssRNA)
RNA: GGGAGUUCUACAGUCCGACGAUCGUCCGGGGUUUCCAGGGACGGCUCAGAGGCUGGGAAGGGUGCUGACAAGCUGUCCUCCAGGAGGCUGUCCUGACUGGUUGAGUCCGAGGAGAGGGCAGACACCAAGCCUGCUUCUUUUGCCAACAGAGGAUUGAGCAUCA
B12: chr19:56882518:56882519:-_ENSMUSG00000035173_ENSMUST00000118592|mus_mus|motif|central (ssRNA)
RNA: GGGAGUUCUACAGUCCGACGAUCCUGAGACAGCUGCUUAAUUUUGUUAGUGUUUUUCUCCAAUUCCUUACUUGCAUCUCGGAGUUUCCUCUCAAGGGUUUCUUUUUCCUUUCGCAGGUCUAGAGCCUCCUUCUCGCCUCUCACCAACAGAGGAUUGAGCAUCA
B13: chr2:100011259:100011260:+_ENSG00000158417_ENST00000289371|hu_mus|motif|central (ssRNA)
RNA: GGGAGUUCUACAGUCCGACGAUCGUAGUCCUGUCUGUAUUUUGUAAAGGCAUCAAAUAAGUGAUAAAUAAUUUCUGCACGGAAGAUUCUAACUCCCAAACUAUCAGCCAUCUCUUGUGCGUCCCGUUCAAUUCUUACAUCAAACAACAGAGGAUUGAGCAUCA
B14: chr1:245023758:245023759:-_ENSG00000153187_ENST00000283179|hu_mus|FALSE|FALSE (ssRNA)
RNA: GGGAGUUCUACAGUCCGACGAUCAGCAAAACUCUCCAUAGUAAGGGAAGAAGCACUCAGACGGUCUCUCGAGAUUUUAAAAUGCAGAUCACAAUUAUAAGUAUCAAGACAAACCACUGUGUCAUCGAAGUGUUCGUCUUCUUCCAACAGAGGAUUGAGCAUCA

target: T1, UNK ZnF1-3 (human, UniProt Q9C0B0 31-174); assay: nsRBNS (natural sequence RNA bind-n-seq); RBNS binding buffer (assumed for nsRBNS): 25 mM Tris pH 7.5, 150 mM KCl, 3 mM MgCl2, 0.01% Triton X-100, 500 ug/ml BSA, 20 U/ml SUPERase-In, 4 C; UNK is unkempt and MSI1 is Musashi-1; names of the RNAs are library labels; protein concentration not given here; high values mean tight binding
T1 sequence: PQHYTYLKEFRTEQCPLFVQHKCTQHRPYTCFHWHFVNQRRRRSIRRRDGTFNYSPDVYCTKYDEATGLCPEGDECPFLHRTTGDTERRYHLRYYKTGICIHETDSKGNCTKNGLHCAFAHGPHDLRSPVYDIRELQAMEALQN

Row | Binder | binding signal [enrichment R]
1 | B1 | 0.758
2 | B2 | 0.631
3 | B3 | 1.34
4 | B4 | 0.487
5 | B5 | 1.29
6 | B6 | 1.22
7 | B7 | 0.699
8 | B8 | 0.635
9 | B9 | 1.05
10 | B10 | 1.39
11 | B11 | 0.95
12 | B12 | 0.421
13 | B13 | 2.98
14 | B14 | 2.25
